# Test results as given in PMC12040169 (PLOS Biology, 2025).
# The other results are listed elsewhere or left out.
# Test system: T1, C. trachomatis L2/434/Bu expressing GFP (CTL2-GFP)
# T1 construct: L2/434/Bu GFP intracellular growth in HeLa cells
# Set-up: species or system HeLa; C. trachomatis total inclusion area by high-content imaging, normalised to DMSO
# Conditions: total inclusion area; 28.5 h, 10 µM; inhibitor
# Method in brief: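 High-content imaging followed the bulk GFP/resorufin measurement: fixed, Hoechst-stained cells were scored for GFP inclusions and host nuclei per well. Total inclusion area and count served as growth proxies, nuclei number as the viability proxy. MIC calculation matched the bulk assay.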
row,SMILES,% of control remaining
1,O=C(CSc1nnc(CN2CCOCC2)n1-c1ccc(Cl)cc1)N1CCN(c2ccccc2)CC1 [CBK269088],92.4847
2,CC(C)(C)OC(=O)N1CCC(Sc2ccc(-c3ccco3)cc2)CC1 [CBK122552],85.4759
3,N#CCSc1nc(-c2cccnc2)ccc1C(=O)O [CBK269387],76.5303
4,CN(C)c1cccc(-c2ccc(Nc3ccc(N4CCOCC4)cc3)nc2)c1 [CBK037735],118.566
5,CC(Sc1nc(N)cc(=O)[nH]1)C(=O)Nc1ccc(S(N)(=O)=O)cc1 (stereo not shown) [CBK266191],116.467
6,CCN(CC)CCSc1nc2sc3c(c2c(=O)n1-c1ccc(OC)cc1)CCCC3 [CBK263308],96.0971
7,CCn1c(Cc2c(C)[nH]c3ccccc23)nnc1SCC(=O)NC12CC3CC(CC(C3)C1)C2 [CBK267529],112.702
8,Nc1nc(SCCc2ccccc2)nc2sc3c(c12)CCCC3 [CBK263445],105.708
9,C=CCNC(=S)Nc1sc2c(c1C(=O)OCC)CC(C)CC2 (stereo not shown) [CBK268778],104.906
10,CC1(C)CC(=O)C=C(C(=O)Nc2ccccc2N2CCCNCC2)O1 [CBK038935T],50.7932
11,Cc1ccc2nc(NCCC(=O)O)nc(-c3ccccc3)c2c1 [CBK266537],129.382
12,CC(Oc1cc(Cl)ccc1Cl)c1nnc(S)n1C (stereo not shown) [CBK288376],44.3038
13,N[C@H]1C[C@H]2C(=O)NC[C@@H](CCC(=O)NCc3cccs3)N2C1 [CBK289005],105.457
14,CC(Oc1cccc2ccccc12)C(=O)NN (stereo not shown) [CBK261209],93.1648
15,CN1C(=O)COc2ccccc2C/C=C/C[C@@H]2[C@H]1CCCN2S(=O)(=O)N1CCOCC1 [CBK292063],114.383
16,CCCC/C=C/c1cnc(N)c(Nc2ccc(OC)cc2)n1 [CBK063890],97.2797
17,Cc1cc(COc2nc3ccccc3nc2NC(C)C(C)C)no1 (stereo not shown) [CBK174007],92.627
18,Cc1c(Br)c([N+](=O)[O-])nn1C(C)C(=O)Nc1sc2c(c1C(N)=O)CCCC2 (stereo not shown) [CBK268914],90.2689
19,Cc1onc(-c2ccccc2)c1C(=O)N1CCN(CCN2CCCC2)CC1 [CBK158558],104.251
20,O=C(NCCc1ccc(Cl)cc1)C1(Cc2ccc(-c3ccncc3)cc2)CCOCC1 [CBK285570],75.1035
21,CCOc1ccccc1C(=O)Nc1ccc(O)cc1 [CBK099037],125.746
22,O=C(CSc1nnc(-c2ccccc2Cl)[nH]1)c1ccc(O)c(O)c1 [CBK267693],95.6015
23,CO/C(=N\S(=O)(=O)c1ccccc1)c1ccccc1 [CBK023221],69.3165
24,Cn1c(=O)c2c(nc(CN3CCN(Cc4ccccc4)CC3)n2CCc2ccccc2)n(C)c1=O [CBK269523],95.6728
25,COc1cc(CNc2nccnc2-c2ccco2)cc(OC)c1OC [CBK037320],95.49
26,CCOc1ccccc1NC(=O)C(C)Oc1ccc(OC)cc1 (stereo not shown) [CBK266648],5.897

row,SMILES,% of control remaining
1,Clc1ccc(-c2nccnc2OCc2ccccn2)cc1Cl [CBK107108],93.3423
2,CC(C)c1ccsc1C(=O)N1CCC2(C1)NC(=O)NC2=O (stereo not shown) [CBK305188],78.6882
3,O=C(NCC1CCOC1)c1ccc(-c2ccccc2CO)cc1 (stereo not shown) [CBK306616],36.4633
4,Cc1ccccc1Cc1cccc(C2CCN(S(=O)(=O)c3cn[nH]c3)CC2)n1 [CBK286125],107.201
5,COC(=O)c1c(NC(=S)Nc2cnccn2)sc2c1CCC2 [CBK266935],95.7427
6,O=C(O)CSc1nc2c(-c3ccco3)c3c(nc2o1)CCCC3 [CBK269266],99.8774
7,OC1CCC(Nc2cncc(-c3cccc(F)c3)n2)CC1 (stereo not shown) [CBK065449],121.425
8,CCNC(=O)N(C)c1c(CC)nc2c(OCc3ccc(S(C)(=O)=O)cc3)cccn12 [CBK147797],93.9399
9,Cn1cc(CC(=O)Nc2ccc(N3CCNCC3)nc2)c2ccccc21 [CBK028275T],72.4573
10,OCCN(Cc1ccccc1)Cc1ccc(Cl)c(Cl)c1 [CBK261908],94.2503
11,c1ccc2c(c1)[nH]c1nc(SCCN3CCCCC3)nnc12 [CBK263249],87.7134
12,Cc1ccc(S(=O)(=O)NC(C)(C)CSc2ccccc2)cc1 [CBK268354],102.162
13,COc1ccc(OC)c(Nc2nc(NCC3CCCO3)c3ccccc3n2)c1 (stereo not shown) [CBK268403C],33.991
14,Cc1cccn2c(=O)c(/C=C3\SC(=S)N(Cc4ccccc4)C3=O)c(NCCCn3ccnc3)nc12 [CBK263833],101.707
15,COc1ccc2sc(N(Cc3cccnc3)C(=O)CCc3ccccc3)nc2c1 [CBK294423],97.9452
16,C#CCN1C(=O)C2(OCCO2)c2cccc(C)c21 [CBK019069],94.7008
17,COc1cc(NS(=O)(=O)c2ccc(NC(=O)c3c(C)noc3C)cc2)nc(OC)n1 [CBK268151],100.698
18,CCN(Cc1ccccc1)[C@@H](CO)Cc1ccc(OC)cc1 [CBK073856T],114.822
19,CCNC(=O)NC[C@H]1C[C@@H]2CCN1C[C@@H]2c1cc(C2CCCC2)nn1C [CBK288743],69.5001
20,CC(C)CCNC(=O)N1CCNC(=O)C1 [CBK155874],96.9484
21,O=C(CSc1cnn[nH]1)Nc1cccc(C(F)(F)F)c1 [CBK269888],70.8001
22,CCOc1ccc(N2C(=O)CC(N3CCN(c4ccc(C(=O)c5ccncc5)cc4)CC3)C2=O)cc1 (stereo not shown) [CBK269124],68.7634
23,O=C(NCC(O)c1ccccc1)Nc1ccccc1 (stereo not shown) [CBK057227],90.5407
24,Cc1nn(C)c(C)c1CN(C)C(=O)c1cc(-c2ccc(F)cc2)on1 [CBK281587],94.0067
25,COc1nc2ccccc2nc1CCC(=O)NCc1ccco1 [CBK269866],53.6536
26,CCCC(=O)Nc1ccc(-c2csc(N3CCN(C)CC3)n2)cc1 [CBK305025],34.6338
